The campaign covered roughly 44,000 compounds. About 340 (0.77%) were called active. About 5% were inconclusive and are not listed. The call rests on the fitted dose curve; in most records, active means well fitted inhibition curve with a large enough effect; inconclusive means small, poorly fitted or top-dose-only effect; inactive means flat fitted curve, though single readings scatter. This is one part of the list.
Experiment: Acumen qHTS Assay for Inhibitors of the mTORC1 Signaling Pathway in MEF (Tsc2-/-, p53-/-) Cells: Sytravon; further: nearly all actives have a fitted effect of over 50% in size;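 on activity change, negative = inhibition: plate controls were DMSO for no effect and rapamycin for full effect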
Details: phospho-rpS6 immunofluorescence/PI, 24 h; series mostly up to 38.3 µM; activity change, negative = inhibition: at the top concentration
How it was run: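 Compounds act on Tsc2-/-, p53-/- fibroblasts carrying an empty vector for 24 h before fixation and dual staining for phospho-S6 and DNA (propidium iodide). Values are percentages of cells above a rapamycin-defined pS6/PI threshold.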
Potency means the concentration at half of the fitted maximal effect.

Activity change, negative = inhibition, inactive:
Cc1ccc(CCNC(=O)c2nnc(Cc3cccc(F)c3)o2)cc1 3.41%
CC1Cc2ccccc2N1S(=O)(=O)c1nnc(NC(=O)c2ccccc2Br)s1 (stereo unspecified) -0.964%
COc1ccc(-c2cn3nc(N4CCCC(C(=O)Nc5ccc(Cl)cc5C)C4)sc3n2)cc1 (stereo unspecified) 5.53%
COc1ccc(S(=O)(=O)NCC(c2cccs2)S(=O)(=O)c2ccc(C)cc2)cc1F (stereo unspecified) -0.838%
Cc1[nH]c2ccc(F)cc2c1CCNC(=O)c1cc2cc(Cl)ccc2oc1=O 2.89%
CC(C)Oc1ccc(C(=O)Nc2ccc3oc(-c4ccncc4)nc3c2)cc1 4.22%
COc1cc(NC(=O)C(NC(=O)C2CCC(C)CC2)C(C)C)cc(OC)c1OC (stereo unspecified) -15.8%
COc1ccc(Cl)cc1NS(=O)(=O)c1c(C)nc2scc(C)n2c1=O 5.61%
Cc1ccc(CNC(=O)c2c[nH]c3ccc(S(=O)(=O)Nc4ccc(C(C)C)cc4)cc3c2=O)cc1 -2.97%
COCCn1c(CNC(=O)c2cc([N+](=O)[O-])ccc2Cl)nc2cccnc21 1.02%
COc1ccc(C(=O)Nc2onc3c2CCCC3)cc1 5.32%
COc1ccc(NC(=O)Cn2cnc3c(nc4n3CCCCC4)c2=O)c(OC)c1 -5.15%
COCCCn1c(=N)c(C(=O)NC2CCCCC2)cc2c(=O)n3ccccc3nc21 -6.09%
COc1ccc(C2=CC(c3ccc(N(C)C)cc3)n3nnnc3N2)cc1 (stereo unspecified) -6.07%
Cc1c(CNC2CCCCCC2)c(C(=O)O)c(C)n1Cc1c(F)cccc1Cl -3.04%
CCOC(=O)c1ccccc1NC(=O)Cc1c(C(=O)O)c(C)cn1C -0.0106%
CCOC(=O)c1ccc(N2C(=O)c3n[nH]c(C)c3C2c2ccc(O)c(OC)c2)cc1 (stereo unspecified) -6.26%
COc1ccc(N2CCN(C(=O)Cn3cnc4sc(C)c(S(=O)(=O)N5CCC(C)CC5)c4c3=O)CC2)cc1 -18.5%
Cc1ccc(-n2ncc(C(=O)N3CCN(c4ccccn4)CC3)c2C2CCN(C(=O)OC(C)(C)C)CC2)cc1C -2.52%
Cc1cc(=O)oc2c3c(ccc12)OCN(Cc1ccccc1Cl)C3 -3.58%
Cc1cccc(CS(=O)(=O)CC2Nc3ccc(C(=O)NCc4ccccc4)cc3NC2=O)c1 (stereo unspecified) 4.66%
O=S(=O)(NCc1ccc(F)cc1)c1ccc2[nH]c3c(c2c1)CCCCC3 9.8%
CCOC(=O)c1nc(Nc2ccc(OC)cc2)c2ccccc2n1 4.25%
Cc1ccccc1Nc1c(-c2cccc(O)c2)nc2ccc(Br)cn12 -25.1%
CC(C)CCNC(=O)c1ccc(Cn2c(=O)c3cccn3c3cccnc32)cc1 1.56%
Cc1ccc(-c2nn(-c3cccc([N+](=O)[O-])c3)c3c2cnc2ccc(F)cc23)cc1 0%
CCOc1ccc(CNC(=O)c2ccc3c(c2)sc2nc(-c4ccc(OC)cc4)cn23)cc1 -16.2%
COc1cc(OC)c(NC(=O)CSC2=Nc3ccccc3N=C(c3ccc(F)cc3)C2)cc1Cl -1.97%
Cc1cc2c(n1-c1ccc(C(=O)NCC(C)c3ccccc3)cc1)CCCC2 (stereo unspecified) -6.73%
Cc1sc(C2C(C#N)=C(N)N(c3cccc(Cl)c3)C3=C2C(=O)CCC3)cc1CN1CCOCC1 (stereo unspecified) 4.93%
COc1ccc(-c2n[nH]c3c2C(c2ccc(Cl)cc2Cl)NC3=O)cc1 (stereo unspecified) -27.9%
COc1ccc(-n2c(=O)c3c(c4cc(OC)ccc4n3C)n(CC(=O)NCC3CCCO3)c2=O)cc1 (stereo unspecified) 0.202%
CCN(CCCNC(=O)c1ccc(Sc2ccc(C)cc2)c(NC(C)=O)c1)c1cccc(C)c1 6.53%
CCOc1cccc(C(=O)Nc2ccc3oc(-c4ccc(C(C)(C)C)cc4)nc3c2)c1 -23.4%
Cc1ccc2oc(-c3ccc(C)c(NC(=O)c4ccc5c(c4)OCCO5)c3)nc2c1 -2.37%
Cc1ccc(F)cc1NC(=O)CCc1c(C)nn(-c2ccc(N3CCCCC3)nn2)c1C -1.44%
CC(CCO)Nc1nc2c(c(=O)n(C)c(=O)n2C)n1Cc1ccc(Br)cc1 (stereo unspecified) -3.69%
C#CCSc1nc2sc3c(c2c(=O)n1-c1cccc(OC)c1)CCN(C(C)=O)C3 -2.57%
Cc1ccc(S(=O)(=O)Nc2ccc(-c3ccc(N4CCCCCC4)nn3)cc2)cc1C 1.77%
CCOC(=O)c1ccc(-c2ccc(/C=C(\C#N)C(=O)Nc3c(C)cccc3Cl)o2)cc1 -2.24%
COc1cc(Cl)c(NC(=O)c2cc(S(=O)(=O)N3CCOCC3)cn2C)c(OC)c1 1.96%
CCc1nn2c(-c3ccco3)ccnc2c1-c1ccc(F)cc1 -0.229%
CC(C)(C)NC(=O)Cn1cc(S(=O)(=O)Cc2ccc(F)cc2)c2ccccc21 0.638%
CC1CCN(c2ccc(-c3cccc(NS(=O)(=O)c4ccc(Cl)s4)c3)nn2)CC1 0%
CCCOc1ccc(-c2nonc2NC(=O)COc2ccc(C)cc2)cc1OCCC 2.34%
COCCn1c(SCC(=O)c2ccc(OC)cc2)nc2cc(C(=O)NC3CCCC3)ccc2c1=O -1.63%
CCOC(=O)CNC(c1ccccc1)c1cc(Br)ccc1NC(=O)c1ccc(Cl)cc1 (stereo unspecified) 1.62%
Cc1ccc(S(=O)(=O)c2nnn(CC(=O)Nc3ccccc3C)c2N)cc1C -6.61%
CCC(=O)Nc1ccc2nc(SCCOc3cccc(C)c3)sc2c1 -3.32%
O=C(CCC1N=C2c3ccccc3N=C(SCc3ccccc3Cl)N2C1=O)NCc1cccs1 (stereo unspecified) 1.2%
O=C(NCc1ccccc1F)C(=O)NCC(c1cccs1)S(=O)(=O)c1cccs1 (stereo unspecified) -0.995%
CCOc1ccc(OCC)c(NC(=O)c2cnc3c(-c4ccccc4)c(C)nn3c2C)c1 2.04%
CC(C)Cc1ccc(S(=O)(=O)Nc2ccc3[nH]c(=O)[nH]c3c2)cc1 -11.2%
COC(=O)c1cc2oc(C)cc2n1Cc1cccc(Cl)c1 -16.8%
Cc1ccc(-n2c(=O)c3c(c4cc(C)ccc4n3C)n(CC(=O)NCCC3=CCCCC3)c2=O)cc1 0.52%
O=c1c2oc3ccccc3c2n(Cc2cccc(Cl)c2)c(=O)n1Cc1ccc2c(c1)OCO2 1.52%
COc1ccccc1OCC(=O)NCC1(N2CCOCC2)CCCCC1 1.22%
O=C(NCc1cccc(Cl)c1)c1ccc(CS(=O)Cc2ccccc2Cl)o1 (stereo unspecified) -14.9%
O=c1oc2c(F)cc(F)cc2cc1S(=O)(=O)c1ccc(F)cc1 1.27%
Cc1ccc(Cc2nc3ccccc3nc2SCC(=O)N2CCCCC2)cc1 -3.29%
Cc1nc(C)c(CCNS(=O)(=O)c2ccc(C)c(C)c2)s1 -15.7%
CCOc1ccccc1NC(=O)c1c(NCc2ccc(C)o2)sc2c1CCCCC2 -10.1%
CCOc1ccc(N(CC)C(=O)c2cc3c(=O)oc4ccccc4c3s2)cc1 3.16%
CCOc1ccc(CN2CCN(S(=O)(=O)c3ccc(Cl)cc3)CC2)cc1 13.9%
Cc1oc(-c2ccccc2F)nc1CN1CCC(C(=O)NCCc2ccc(Cl)cc2)CC1 -6.76%
O=C(Cn1cc(S(=O)(=O)c2ccc(F)cc2)c(=O)c2cc3c(cc21)OCO3)Nc1ccccc1 -20.5%
Cc1ccn2c(=O)c(C(=O)Nc3ccc(F)c(C(F)(F)F)c3)cnc2c1 -5.17%
CCOc1ccc(-c2nonc2NC(=O)c2oc3ccc(Cl)cc3c2C)cc1 -19.3%
Cc1cccc(NC(=O)C(=O)NCC(c2cccnc2)N2CCc3ccccc32)c1C (stereo unspecified) 6.89%
COC(=O)c1ccccc1NC(=O)CCCn1nc(C)c2sc3ccccc3c2c1=O 0.771%
COc1cccc(NC(=O)c2oc3ccccc3c2NC(=O)COc2ccccc2C)c1 -15%
COc1ccc(-c2nnn3c2nc(NCc2ccccc2)c2ccccc23)cc1 -24%
CC1=C(C(=O)Nc2ccc(C)cc2C)C(CC(C)C)n2nc(SCc3ccccc3C)nc2N1 (stereo unspecified) -25.6%
O=c1c2sc3ccccc3c2n(Cc2ccc(F)cc2)c(=O)n1Cc1ccccc1 -5.11%
CCc1cccc(CC)c1NC(=O)CCS(=O)(=O)c1ccc(Br)cc1 -5.6%
COc1ccc(-c2ccc(NS(=O)(=O)c3ccccc3)cc2)nn1 -3.43%
CCOc1ccc(-c2cc(C(=O)NCc3ccc(OCC)c(OC)c3)[nH]n2)cc1 -2.74%
Cc1cc(C)n2nc(SCC(=O)Nc3ccc(O)cc3)nc2n1 -5.85%
Cc1ccc(NC(=O)CSc2ncccc2C(=O)Oc2ccccc2Cl)cc1Cl 13.3%
COc1ccc2[nH]cc(CCNC(=O)Nc3c(C)cccc3C)c2c1 -2.47%
CCOC(=O)c1cc(-c2ccccc2)n(CCC(=O)Nc2ccc(OC)c(Cl)c2)c1C -6.31%
COc1cc(C)ccc1OCCSc1nc2ccc(NC(=O)c3ccc4c(c3)OCO4)cc2s1 0.228%
Cc1ccccc1-c1nc2c(c(SCc3cccc(Cl)c3)n1)Cc1c(CO)cnc(C)c1O2 6.3%
Cc1cc(NC(=O)CN(C)S(=O)(=O)c2ccc3c(c2)CCCC(=O)N3)ccc1Br -10.4%
CCc1ccc(NC(=O)Cn2c(=O)n(CCCC(=O)NCc3ccccc3OC)c(=O)c3ccccc32)cc1 -10.5%
COc1cc(-c2nc(Cn3nnc(C(=O)Nc4ccccc4C)c3C)c(C)o2)cc(OC)c1OC -1.78%
COc1ccc(C)cc1NC(=O)c1ccc2c(c1)N(Cc1cccc(Cl)c1)C(=O)c1ccccc1S2=O (stereo unspecified) -6.28%
Clc1cccc(N2CCN(c3nc4ccccc4c4nc(-c5cccnc5)nn34)CC2)c1 0.312%
CC(=O)N1c2ccc(S(=O)(=O)N3CCCCCC3)cc2CC1C(=O)NCc1cccc(F)c1 (stereo unspecified) 0%
Cc1ccc(S(=O)(=O)c2nc(-c3cccs3)oc2SC(C)c2ccccc2)cc1 (stereo unspecified) -16.4%
CCOc1ccc(CC(=O)NCCS(=O)(=O)N2CCN(c3ccccc3OC)CC2)cc1 -14.4%
CCS(=O)(=O)N1CCc2cc(C(=O)N3CCN(c4ccccc4)CC3)ccc21 0.335%
CCCCC(=O)Nc1cc(-c2nc3ccccc3o2)ccc1OC 2.48%
CCOC(=O)c1noc2ncn(CC(=O)Nc3ccc(OC)c(Cl)c3)c(=O)c12 -4.45%
CCCC(=O)OCc1cnc(C)c2oc(=O)c(C(=O)Nc3ccc(F)cc3C)cc12 0%

Potency, active:
Cc1cccc(Nc2nc(Nc3cccc(C)c3)nc(N3CCOCC3)n2)c1 1.17 µM

Reference: PubChem BioAssay AID493208 (National Center for Advancing Translational Sciences (NCATS), 2011)
